Some of the results follow.
Tests used:
Assay in all cases: glycan array binding signal (z-score within array); higher = stronger binding
Conditions in all cases: glycan notation: IUPAC condensed, linker removed
Fuc(a1-3)GlcNAc = molecular target: Fuc(a1-3)GlcNAc
Outline: (§1)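 From the Consortium for Functional Glycomics database, 3228 arrays were curated, keeping only those whose protein sequence was available. Binding is given as a within-array Z-score averaged across arrays sharing a protein sequence and across linkers. Negative Z-scores can be read as non-binding.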

[1] = molecular target: Fuc(a1-3)[Gal(b1-4)]Glc6S
Outline: as §1

[2] = molecular target: Fuc(a1-3)[Gal(b1-4)]GlcNAc
Outline: as §1

[3] = molecular target: Fuc(a1-3)[Gal(b1-4)]GlcNAc(b1-2)Man
Outline: as §1

[4] = molecular target: Fuc(a1-3)[Gal(b1-4)]GlcNAc(b1-2)Man(a1-3)[Fuc(a1-3)[Gal(b1-4)]GlcNAc(b1-2)Man(a1-6)]Man(b1-4)GlcNAc(b1-4)GlcNAc
Outline: as §1

[5] = molecular target: Fuc(a1-3)[Gal(b1-4)]GlcNAc(b1-2)Man(a1-3)[Fuc(a1-3)[Gal(b1-4)]GlcNAc(b1-2)Man(a1-6)]Man(b1-4)GlcNAc(b1-4)[Fuc(a1-6)]GlcNAc
Outline: as §1

[6] = molecular target: Fuc(a1-3)[Gal(b1-4)]GlcNAc(b1-3)Gal(b1-3)[Fuc(a1-4)]GlcNAc
Outline: as §1

[7] = molecular target: Fuc(a1-3)[Gal(b1-4)]GlcNAc(b1-3)Gal(b1-4)[Fuc(a1-3)]GlcNAc
Outline: as §1

[8] = molecular target: Fuc(a1-3)[Gal(b1-4)]GlcNAc(b1-3)Gal(b1-4)[Fuc(a1-3)]GlcNAc(b1-3)Gal(b1-4)[Fuc(a1-3)]GlcNAc
Outline: as §1

[9] = molecular target: Fuc(a1-3)[Gal(b1-4)]GlcNAc(b1-3)GalNAc
Outline: as §1

[10] = molecular target: Fuc(a1-3)[Gal(b1-4)]GlcNAc(b1-6)GalNAc
Outline: as §1

[11] = molecular target: Fuc(a1-3)[Gal(b1-4)]GlcNAc(b1-6)[Gal(b1-3)GlcNAc(b1-3)]Gal(b1-4)Glc
Outline: as §1

[12] = molecular target: Fuc(a1-3)[Gal(b1-4)]GlcNAc6S
Outline: as §1

[13] = molecular target: Fuc(a1-3)[Gal3S(b1-4)]Glc
Outline: as §1

[14] = molecular target: Fuc(a1-3)[Gal3S(b1-4)]GlcNAc
Outline: as §1

[15] = molecular target: Fuc(a1-3)[Gal3S(b1-4)]GlcNAc6S
Outline: as §1

[16] = molecular target: Fuc(a1-3)[GalNAc(b1-4)]GlcNAc
Outline: as §1

[17] = molecular target: Fuc(a1-3)[GalNAc(b1-4)]GlcNAc6S
Outline: as §1

Fuc(a1-4)GlcNAc = molecular target: Fuc(a1-4)GlcNAc
Outline: as §1

Fuc(b1-3)GlcNAc = molecular target: Fuc(b1-3)GlcNAc
Outline: as §1

Gal(a1-2)Gal = molecular target: Gal(a1-2)Gal
Outline: as §1

Gal(a1-3)Gal = molecular target: Gal(a1-3)Gal
Outline: as §1

Gal(a1-3)Gal(b1-3)GlcNAc = molecular target: Gal(a1-3)Gal(b1-3)GlcNAc
Outline: as §1

[18] = molecular target: Gal(a1-3)Gal(b1-3)GlcNAc(b1-2)Man
Outline: as §1

[19] = molecular target: Gal(a1-3)Gal(b1-3)GlcNAc(b1-2)Man(a1-3)[Gal(a1-3)Gal(b1-3)GlcNAc(b1-2)Man(a1-6)]Man(b1-4)GlcNAc(b1-4)GlcNAc
Outline: as §1

[20] = molecular target: Gal(a1-3)Gal(b1-3)GlcNAc(b1-3)GalNAc
Outline: as §1

[21] = molecular target: Gal(a1-3)Gal(b1-3)GlcNAc(b1-6)GalNAc
Outline: as §1

[22] = molecular target: Gal(a1-3)Gal(b1-3)[Fuc(a1-4)]GlcNAc(b1-2)Man(a1-3)[Gal(a1-3)Gal(b1-3)[Fuc(a1-4)]GlcNAc(b1-2)Man(a1-6)]Man(b1-4)GlcNAc(b1-4)GlcNAc
Outline: as §1

Gal(a1-3)Gal(b1-4)Glc = molecular target: Gal(a1-3)Gal(b1-4)Glc
Outline: as §1

Gal(a1-3)Gal(b1-4)GlcNAc = molecular target: Gal(a1-3)Gal(b1-4)GlcNAc
Outline: as §1

[23] = molecular target: Gal(a1-3)Gal(b1-4)GlcNAc(b1-2)Man
Outline: as §1

[24] = molecular target: Gal(a1-3)Gal(b1-4)GlcNAc(b1-2)Man(a1-3)[Gal(a1-3)Gal(b1-4)GlcNAc(b1-2)Man(a1-6)]Man(b1-4)GlcNAc(b1-4)GlcNAc
Outline: as §1

[25] = molecular target: Gal(a1-3)Gal(b1-4)GlcNAc(b1-3)GalNAc
Outline: as §1

[26] = molecular target: Gal(a1-3)Gal(b1-4)GlcNAc(b1-6)GalNAc
Outline: as §1

[27] = molecular target: Gal(a1-3)Gal(b1-4)[Fuc(a1-3)]GlcNAc
Outline: as §1

[28] = molecular target: Gal(a1-3)Gal(b1-4)[Fuc(a1-3)]GlcNAc(b1-2)Man(a1-3)[Gal(a1-3)Gal(b1-4)[Fuc(a1-3)]GlcNAc(b1-2)Man(a1-6)]Man(b1-4)GlcNAc(b1-4)GlcNAc
Outline: as §1

Gal(a1-3)GalNAc = molecular target: Gal(a1-3)GalNAc
Outline: as §1

[29] = molecular target: Gal(a1-3)[Gal(a1-4)]Gal(b1-4)GlcNAc
Outline: as §1

[30] = molecular target: Gal(a1-4)Gal(b1-3)GlcNAc(b1-2)Man(a1-3)[Gal(a1-4)Gal(b1-3)GlcNAc(b1-2)Man(a1-6)]Man(b1-4)GlcNAc(b1-4)GlcNAc
Outline: as §1

Gal(a1-4)Gal(b1-4)Glc = molecular target: Gal(a1-4)Gal(b1-4)Glc
Outline: as §1

Gal(a1-4)Gal(b1-4)GlcNAc = molecular target: Gal(a1-4)Gal(b1-4)GlcNAc
Outline: as §1

[31] = molecular target: Gal(a1-4)Gal(b1-4)GlcNAc(b1-2)Man(a1-3)[Gal(a1-4)Gal(b1-4)GlcNAc(b1-2)Man(a1-6)]Man(b1-4)GlcNAc(b1-4)GlcNAc
Outline: as §1

[32] = molecular target: Gal(a1-4)Gal(b1-4)GlcNAc(b1-3)Gal(b1-4)Glc
Outline: as §1

Gal(a1-4)GlcNAc = molecular target: Gal(a1-4)GlcNAc
Outline: as §1

Gal(a1-6)Glc = molecular target: Gal(a1-6)Glc
Outline: as §1

B1: PX14343H-pdi-506-26-506 (Parabacteroides distasonis) (protein)
chain: QPTGTMTTDSKLTSKESALALTNSAYLKNTVFNKMTPGWGCNTILLLEYMTGKATSENSQSNYKDFQDLLVSDRSLYIEDWWQDCYAGIANCNLALQKLGEFENLDASLVNGYMAEVKFMRALYYFYLVRIFGDVPKITTVQSELGELQVSRAPVKEIYDEIIIPDLLEAEQSDLAFSDHTGRVSMGAVKALLADVYLTYAGYPLQGGKSYYAESAKRSLEVIKSNEYTLFTDYESLRLPSQNNKGEFIYQVQFSLNKRHNESVRIFLPSRSGISAYDLEYGSLIPTKEFVESFEKGDKRTEEKQYFFTNYKGHPSKFSPGAAELEFMDLNGYYIYKFFDQVAVDNTAKSDLNWSVYRYTDVLLMYAEAQVNADGTPNQQSIDIVNQIRGRAGLAPFKQTNASAFLEEVWDQRYFDLCYENKMWFDMLRTRKIRDDKSGEYVDFIGYKTNWGKVYTETQLLFPIPLSERQANPNLTQNQGY
- glycan array binding signal (z-score) (Fuc(a1-3)GlcNAc): -0.396
- glycan array binding signal (z-score) [1]: -0.364
- glycan array binding signal (z-score) [2]: -0.329
- glycan array binding signal (z-score) [3]: -0.424
- glycan array binding signal (z-score) [4]: 2.09
- glycan array binding signal (z-score) [5]: 2.77
- glycan array binding signal (z-score) [6]: -0.325
- glycan array binding signal (z-score) [7]: -0.254
- glycan array binding signal (z-score) [8]: -0.528
- glycan array binding signal (z-score) [9]: 0.696
- glycan array binding signal (z-score) [10]: -0.188
- glycan array binding signal (z-score) [11]: 0.353
- glycan array binding signal (z-score) [12]: 0.1
- glycan array binding signal (z-score) [13]: -0.426
- glycan array binding signal (z-score) [14]: -0.382
- glycan array binding signal (z-score) [15]: -0.299
- glycan array binding signal (z-score) [16]: -0.381
- glycan array binding signal (z-score) [17]: -0.247
- glycan array binding signal (z-score) (Fuc(a1-4)GlcNAc): -0.438
- glycan array binding signal (z-score) (Fuc(b1-3)GlcNAc): -0.359
- glycan array binding signal (z-score) (Gal(a1-2)Gal): -0.25
- glycan array binding signal (z-score) (Gal(a1-3)Gal): 1.63
- glycan array binding signal (z-score) (Gal(a1-3)Gal(b1-3)GlcNAc): -0.133
- glycan array binding signal (z-score) [18]: -0.187
- glycan array binding signal (z-score) [19]: 3.96
- glycan array binding signal (z-score) [20]: -0.382
- glycan array binding signal (z-score) [21]: -0.284
- glycan array binding signal (z-score) [22]: 1.39
- glycan array binding signal (z-score) (Gal(a1-3)Gal(b1-4)Glc): 0.159
- glycan array binding signal (z-score) (Gal(a1-3)Gal(b1-4)GlcNAc): -0.321
- glycan array binding signal (z-score) [23]: -0.378
- glycan array binding signal (z-score) [24]: 6.89
- glycan array binding signal (z-score) [25]: 0.163
- glycan array binding signal (z-score) [26]: -0.417
- glycan array binding signal (z-score) [27]: -0.014
- glycan array binding signal (z-score) [28]: 0.009
- glycan array binding signal (z-score) (Gal(a1-3)GalNAc): -0.291
- glycan array binding signal (z-score) [29]: 1.31
- glycan array binding signal (z-score) [30]: 0.979
- glycan array binding signal (z-score) (Gal(a1-4)Gal(b1-4)Glc): -0.401
- glycan array binding signal (z-score) (Gal(a1-4)Gal(b1-4)GlcNAc): -0.381
- glycan array binding signal (z-score) [31]: 0.705
- glycan array binding signal (z-score) [32]: -0.472
- glycan array binding signal (z-score) (Gal(a1-4)GlcNAc): -0.272
- glycan array binding signal (z-score) (Gal(a1-6)Glc): -0.374

From the supplement of paper PMC8728848
